Data: PMC4242493
Some of the results follow. The list includes weakly bound sequences.

Each sequence was assayed against MaxL homodimer (UniProt P61244) (assay: universal protein-binding microarray (PBM)). Conditions: PBS-based mixture, 10 nM His-tagged protein dimer, 2% milk, 200 ng/uL BSA, 50 ng/uL salmon testes DNA, 0.02% TX-100; detection with Alexa 488 anti-His …; high values mean tight binding; most listed sequences are background and not binding sites; double strand, one strand shown.
Chain of UniProt P61244 (P61244 whole entry): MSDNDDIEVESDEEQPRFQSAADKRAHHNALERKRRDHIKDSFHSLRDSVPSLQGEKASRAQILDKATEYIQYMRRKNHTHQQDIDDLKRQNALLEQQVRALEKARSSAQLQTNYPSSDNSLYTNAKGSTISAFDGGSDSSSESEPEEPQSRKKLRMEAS

Sequence	binding signal (normalized occupancy)
CACGGATG	0.0776
CCATCGTA	0.0798
AACTAAGC	0.0683
AGCAACTG	0.0694
AGCTCAGA	0.0726
ATGTCATA	0.0875
GCGCGGAA	0.0739
ACTCCGCA	0.077
ACGCGCCA	0.0799
GGGCTCAC	0.0747
AGCCTTCC	0.0678
ACTGGTTC	0.0704
CACGAACG	0.0756
CGCGTATA	0.0739
ATAGGGCG	0.0757
CACGCACA	0.0923
GCCAGAGA	0.0691
CGGTGCTA	0.074
ATGTATCC	0.0851
CTCTCCTC	0.0763
GCCCCCGC	0.0725
AGCCCATC	0.0708
GCTTTATA	0.0779
ACGACCAG	0.0771
ATCGTCAG	0.073

Sequence	binding signal (normalized occupancy)
CCTTGGAC	0.0694
GCTGGACC	0.0695
CAGACCGA	0.0678
CGGGCACA	0.0728
AACAGCGG	0.0696
CGGTCACC	0.0714
AAGCTTTG	0.0692
CGTGCGGC	0.0868
AACTGAAA	0.0716
ATCTGTTA	0.0767
CGCGTTGC	0.0781
GATGACGC	0.0757
CGCATGAA	0.0861
AAGTTATC	0.0766
ACTACAAC	0.0774
ATGTGGTA	0.0922
CAAACCTG	0.0755
ACTTAATG	0.0716
CGGCTGAA	0.0645
ACACCTAG	0.0768
GACCTGGC	0.0687
CCACACCC	0.0868
CACTGGTA	0.0765
CAAACGAA	0.0718
ACGTACAG	0.0776

Sequence	binding signal (normalized occupancy)
GAGGTTAA	0.0751
TATACGCA	0.0816
CGAGCTAC	0.073
CACCCTGC	0.0738
GGCCCGCC	0.0726
CCCTACGG	0.0685
AATCCCCA	0.0823
ACAGGCAT	0.0804
GCTGTGCA	0.075
AATTTGCG	0.0688
AAGAGTTG	0.0714
CAGGTCCA	0.0775
CTCGCCTA	0.0715
ATACAGCG	0.077
ATCAATCG	0.0807
ACAATCTG	0.0757
AATAATTC	0.0795
CATTCAAC	0.0769
ACCACGAG	0.115
ATAGGGAA	0.0721
CGCACCGA	0.077
ACAGAAAG	0.0747
ACTGCGTC	0.0666
GCCTGGGA	0.068
ATGACCTC	0.0796

Sequence	binding signal (normalized occupancy)
CGCATGCA	0.122
TAGGAATA	0.0757
CCCGATAC	0.0717
CCGCCTCA	0.0698
CTCTATCC	0.0797
GAACGCGC	0.0708
TAGGTCGA	0.072
AGGCGAGC	0.0637
CACAATTC	0.0794
GCAAAACC	0.071
CCGTTTTA	0.0759
ACTATGAT	0.0785
ACAACAGT	0.0722
GCGGTCAC	0.0757
GTATGGAC	0.0779
TAAGGAAA	0.0738
AACGAATT	0.0717
CGTCTCTA	0.0733
ATTGACTG	0.0739
TATATGCA	0.0896
ACAGCGAT	0.0762
ACGGGAGT	0.0773
AGTTCAAT	0.0795
GATTTATA	0.0736
CGACGGAG	0.0681

Sequence	binding signal (normalized occupancy)
AAACATCA	0.0844
ACATGCAG	0.097
GGCGGAAA	0.0683
AAGTGGAC	0.0717
CGATGACA	0.0817
CAGTGCCG	0.0707
CTTATAGC	0.0825
AAAGTCTT	0.0698
GCTACACA	0.0771
CCGGAACC	0.0683
ACCGCCAC	0.0803
CATGTAGG	0.0929
CTATTCAA	0.0762
CAAACGCG	0.0748
GCTAGAGC	0.0669
CACATGTG	0.216
AGTTTCGC	0.0689
ACCAACTC	0.0732
AGAACGCA	0.0762
ATCCTGCC	0.0784
ACCCCCTA	0.0797
TGTATGAA	0.0859
AGTGTTAA	0.0742
CAGTAAAA	0.0717
AAGACTTA	0.0751

Sequence	binding signal (normalized occupancy)
ATGAATTA	0.0806
GCAAACGC	0.0735
CCTCTAAC	0.0759
CGAAATAA	0.0704
ATATTGTA	0.081
CCGACAAG	0.0708
AGCTCTTC	0.0714
AAACACCG	0.0706
CGTCAGAC	0.0733
ACGCTTCT	0.0775
GCACCCCA	0.078
GGCTCCTA	0.0694
GTGCATTA	0.0779
GTGTCCAA	0.076
AAGGGGAA	0.0744
TGGCCACA	0.0875
CATATTAC	0.0801
CTAGCGAA	0.071
AAGGGCCG	0.0664
CCAAACAC	0.0858
CGAGCCTA	0.0698
AGCGGAGA	0.0714
CTTGAGCC	0.0693
AATCGTCT	0.0757
GGGACATA	0.0821

Sequence	binding signal (normalized occupancy)
AACGGGTG	0.078
AGGAGGGC	0.0759
CTAGTAAG	0.0728
ATCCGCAA	0.075
ATGTAAGC	0.0797
AACCATTC	0.0758
GAGTATTA	0.0788
CCGATTCG	0.0719
ACTTAGGG	0.073
GTTGAAAA	0.0729
CCTCCTGC	0.0769
CTCAATAA	0.073
CAACCACC	0.0741
GAAGACTC	0.0694
AGACATTC	0.0798
CGGCTGGA	0.0689
CGGCTCCA	0.0694
GCCACGAC	0.077
ACACGATA	0.0824
AGTTCGAT	0.0764
GAATGCGA	0.077
AAGATTGG	0.0762
ATATATGA	0.0855
AATGTACT	0.0746
CTTCCGTA	0.0736

Sequence	binding signal (normalized occupancy)
AGACGAGA	0.0692
ACGTCAGC	0.0819
AGCTAGTA	0.0688
AAGCGCCA	0.0693
CGTGCCAG	0.0784
ATGATTTG	0.0775
ACATTAAT	0.0775
ACGAGCTA	0.0699
AACGGTCG	0.0728
GATTATTA	0.0834
CGTGGAGA	0.084
AATCAGTG	0.0739
CAGCAGGC	0.067
GACTTGCC	0.0652
CATAGTTC	0.0742
AGACACAA	0.0705
AGTCGGCC	0.0671
GCTGAGGA	0.0717
GGCCAGTA	0.0714
GGCTTTAA	0.0708
ATCCTCAT	0.0899
AACTCGCA	0.0712
ATGTCTCG	0.0802
CACTGTAA	0.0748
CACCTCAG	0.0704

Sequence	binding signal (normalized occupancy)
CCAGGTAA	0.0729
CGCCCAGA	0.0713
CGAGAACC	0.0813
GATCAACA	0.078
AATTATGG	0.0831
CGAAGGAA	0.0722
AAGTTGAG	0.0725
ACTGGAAT	0.0784
ACTGCGCG	0.0704
CATGGTCA	0.0991
AGTCCGAG	0.0716
CACAAACA	0.0811
TCGCACGA	0.0806
CTCGGGCA	0.0702
TAACTGGA	0.0697
GAATACGA	0.0768
GCCAGTTA	0.0705
ACACCTTC	0.0779
AAGGCAAC	0.0734
